The record followed here is publication PMC12820563.

Some of the results follow. The list includes weakly bound sequences.

The target in the test is T1, MBP-FoxP3dN (UniProt Q99JB6).
T1 sequence: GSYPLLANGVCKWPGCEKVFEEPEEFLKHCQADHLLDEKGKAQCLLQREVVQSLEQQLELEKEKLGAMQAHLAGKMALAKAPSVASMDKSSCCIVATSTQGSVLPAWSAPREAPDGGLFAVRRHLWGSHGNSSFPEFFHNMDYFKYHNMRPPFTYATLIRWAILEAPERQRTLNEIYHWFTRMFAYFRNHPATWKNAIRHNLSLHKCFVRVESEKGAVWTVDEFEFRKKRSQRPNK
The test is described as follows: PD-seq (MBP pull-down with sequencing). Conditions: 20 mM Tris-HCl pH 7.5, 100 mM NaCl, 1.5 mM MgCl2, 0.4 uM protein, 0.1 uM dsDNA library, 30 min, room temperature, amylose pull-down; high values mean tight binding; double strand, one strand shown.
For “GATGATTGTTCTCCCAGCTGATGAATTCGGTCGCTCGAGTAAACAAATTTTCCTAATCTTTCTGTTCAAGCGCCATCTAC”, the binding signal (RPM ratio (pull-down/input)) came to 0.361.

Consider “GATGATTGTTCTCCCAGCTGATGAATTAATTGAATCGAGTAAACAAATTTTCCTAATCTTTCTGTTCAAGCGCCATCTAC”, for which the binding signal (RPM ratio (pull-down/input)) is 0.292.

Take “GATGATTGTTCTCCCAGCTGATGAATTCTCCCGTTCGAGTAAACAAATTTTCCTAATCTTTCTGTTCAAGCGCCATCTAC”: the binding signal (RPM ratio (pull-down/input)) is 0.247.

Turning to “GATGATTGTTCTCCCAGCTGATGAATTCACCGTCTCGAGTAAACAAATTTTCCTAATCTTTCTGTTCAAGCGCCATCTAC”, the binding signal (RPM ratio (pull-down/input)) came to 0.359.

Consider “GATGATTGTTCTCCCAGCTGATGAATTGTTAATCTCGAGTAAACAAATTTTCCTAATCTTTCTGTTCAAGCGCCATCTAC”, for which the binding signal (RPM ratio (pull-down/input)) stood at 0.654.

Turning to “GATGATTGTTCTCCCAGCTGATGAATTTCACCTCTCGAGTAAACAAATTTTCCTAATCTTTCTGTTCAAGCGCCATCTAC”, the binding signal (RPM ratio (pull-down/input)) turned out to be 0.48.

As for “GATGATTGTTCTCCCAGCTGATGAATTTTAGAAGTCGAGTAAACAAATTTTCCTAATCTTTCTGTTCAAGCGCCATCTAC”, the binding signal (RPM ratio (pull-down/input)) was 0.183.

As for “GATGATTGTTCTCCCAGCTGATGAATTCACCACCTCGAGTAAACAAATTTTCCTAATCTTTCTGTTCAAGCGCCATCTAC”, the binding signal (RPM ratio (pull-down/input)) stood at 0.353.

On to “GATGATTGTTCTCCCAGCTGATGAATTATCGTGATCGAGTAAACAAATTTTCCTAATCTTTCTGTTCAAGCGCCATCTAC”, for which the binding signal (RPM ratio (pull-down/input)) came out at 0.421.

In the case of “GATGATTGTTCTCCCAGCTGATGAATTGAGGGGTTCGAGTAAACAAATTTTCCTAATCTTTCTGTTCAAGCGCCATCTAC”, the binding signal (RPM ratio (pull-down/input)) was 0.486.

In the case of “GATGATTGTTCTCCCAGCTGATGAATTGTGTTGATCGAGTAAACAAATTTTCCTAATCTTTCTGTTCAAGCGCCATCTAC”, the binding signal (RPM ratio (pull-down/input)) was 7.06.

As for “GATGATTGTTCTCCCAGCTGATGAATTTTGGTTATCGAGTAAACAAATTTTCCTAATCTTTCTGTTCAAGCGCCATCTAC”, the binding signal (RPM ratio (pull-down/input)) was determined as 1.54.

With “GATGATTGTTCTCCCAGCTGATGAATTTGAGGTCTCGAGTAAACAAATTTTCCTAATCTTTCTGTTCAAGCGCCATCTAC”, the binding signal (RPM ratio (pull-down/input)) came out at 0.871.

For the sequence “GATGATTGTTCTCCCAGCTGATGAATTTTGGGTTTCGAGTAAACAAATTTTCCTAATCTTTCTGTTCAAGCGCCATCTAC”, the binding signal (RPM ratio (pull-down/input)) was 0.761.

Take “GATGATTGTTCTCCCAGCTGATGAATTCGAAAGTTCGAGTAAACAAATTTTCCTAATCTTTCTGTTCAAGCGCCATCTAC”: the binding signal (RPM ratio (pull-down/input)) amounted to 0.244.

On to “GATGATTGTTCTCCCAGCTGATGAATTACGACCCTCGAGTAAACAAATTTTCCTAATCTTTCTGTTCAAGCGCCATCTAC”, for which the binding signal (RPM ratio (pull-down/input)) is 0.443.

As for “GATGATTGTTCTCCCAGCTGATGAATTTCATCCCTCGAGTAAACAAATTTTCCTAATCTTTCTGTTCAAGCGCCATCTAC”, the binding signal (RPM ratio (pull-down/input)) is 0.419.

For the sequence “GATGATTGTTCTCCCAGCTGATGAATTCGGGGCATCGAGTAAACAAATTTTCCTAATCTTTCTGTTCAAGCGCCATCTAC”, the binding signal (RPM ratio (pull-down/input)) was found to be 0.686.

In the case of “GATGATTGTTCTCCCAGCTGATGAATTACGTTAATCGAGTAAACAAATTTTCCTAATCTTTCTGTTCAAGCGCCATCTAC”, the binding signal (RPM ratio (pull-down/input)) came out at 0.422.

For “GATGATTGTTCTCCCAGCTGATGAATTTTAGGAGTCGAGTAAACAAATTTTCCTAATCTTTCTGTTCAAGCGCCATCTAC”, the binding signal (RPM ratio (pull-down/input)) was found to be 0.198.

Turning to “GATGATTGTTCTCCCAGCTGATGAATTATGGGGATCGAGTAAACAAATTTTCCTAATCTTTCTGTTCAAGCGCCATCTAC”, the binding signal (RPM ratio (pull-down/input)) was found to be 0.394.

On to “GATGATTGTTCTCCCAGCTGATGAATTTGGAGTCTCGAGTAAACAAATTTTCCTAATCTTTCTGTTCAAGCGCCATCTAC”, for which the binding signal (RPM ratio (pull-down/input)) is 1.26.

In the case of “GATGATTGTTCTCCCAGCTGATGAATTATAAGAGTCGAGTAAACAAATTTTCCTAATCTTTCTGTTCAAGCGCCATCTAC”, the binding signal (RPM ratio (pull-down/input)) is 0.282.

For the sequence “GATGATTGTTCTCCCAGCTGATGAATTTAAACACTCGAGTAAACAAATTTTCCTAATCTTTCTGTTCAAGCGCCATCTAC”, the binding signal (RPM ratio (pull-down/input)) came to 0.675.

Take “GATGATTGTTCTCCCAGCTGATGAATTTCACCGGTCGAGTAAACAAATTTTCCTAATCTTTCTGTTCAAGCGCCATCTAC”: the binding signal (RPM ratio (pull-down/input)) was determined as 0.208.

Regarding “GATGATTGTTCTCCCAGCTGATGAATTTTCTGCATCGAGTAAACAAATTTTCCTAATCTTTCTGTTCAAGCGCCATCTAC”, the binding signal (RPM ratio (pull-down/input)) is 0.961.

As to “GATGATTGTTCTCCCAGCTGATGAATTCCACATCTCGAGTAAACAAATTTTCCTAATCTTTCTGTTCAAGCGCCATCTAC”, the binding signal (RPM ratio (pull-down/input)) is 0.538.

Regarding “GATGATTGTTCTCCCAGCTGATGAATTATGCGCGTCGAGTAAACAAATTTTCCTAATCTTTCTGTTCAAGCGCCATCTAC”, the binding signal (RPM ratio (pull-down/input)) worked out at 3.33.

As to “GATGATTGTTCTCCCAGCTGATGAATTTAACGCATCGAGTAAACAAATTTTCCTAATCTTTCTGTTCAAGCGCCATCTAC”, the binding signal (RPM ratio (pull-down/input)) was found to be 1.01.

Turning to “GATGATTGTTCTCCCAGCTGATGAATTGGAAACTTCGAGTAAACAAATTTTCCTAATCTTTCTGTTCAAGCGCCATCTAC”, the binding signal (RPM ratio (pull-down/input)) was 0.272.

As to “GATGATTGTTCTCCCAGCTGATGAATTATGCTCTTCGAGTAAACAAATTTTCCTAATCTTTCTGTTCAAGCGCCATCTAC”, the binding signal (RPM ratio (pull-down/input)) turned out to be 0.928.

As for “GATGATTGTTCTCCCAGCTGATGAATTTGTTCTATCGAGTAAACAAATTTTCCTAATCTTTCTGTTCAAGCGCCATCTAC”, the binding signal (RPM ratio (pull-down/input)) is 1.48.
